Paper PMC5892938
The other results are listed elsewhere or left out. At the low end of the ranking, values are background and their order means little.
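Note: DESeq read counts versus GST-SBP nonspecific binding control pulldown.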

The sequences below were run against GST-SBP-SLBP (stem-loop binding protein) (UniProt Q14493) (assay: targeted RNA Bind-n-Seq). Details: RBNS binding buffer: 25 mM Tris pH 7.5, 150 mM KCl, 3 mM MgCl2, 0.1% Tween, 0.5 mg/mL BSA, 1 mM DTT; 27 nM protein, 750 pM RNA pool; temperature not stated; high values mean tight binding.
“GGUCACGUCUCAAUCAACUCAUCAGAGGGGGGGAAAACCCCUUUGCCCUCACUAUCAACAGCUCGCAGUCAAG” gave a binding signal (log2 fold change) of 0.0481.
With “GGUCACGUCUCAAUCAACUCAAUCUCAGGAGUUUUCUCCUGCUUUCUCAACAGCUCGCAGUCAAG” the binding signal (log2 fold change) was -0.0354.
“GGUCACGUCUCAAUCAACUCAAUCUCAGGAGUUUUCUCCUGUAUUUUCAACAGCUCGCAGUCAAG” showed a binding signal (log2 fold change) of -0.0806.
For “GGUCACGUCUCAAUCAACUCUUUUUCAGGAGUUUUCUCCUGCUUAUUCAACAGCUCGCAGUCAAG”, the binding signal (log2 fold change) was -0.187.
In the case of “GGUCACGUCUCAAUCAACUCUUCCUCCAGGGAAAGCCCUGGUAUUCUCAACAGCUCGCAGUCAAG”, the binding signal (log2 fold change) is reported as -0.237.
Sequence “GGUCACGUCUCAAUCAACUCUUACGAGGGGGGGAAAACCCCUUUACCCUCUUCUUCAACAGCUCGCAGUCAAG” has a binding signal (log2 fold change) of 0.477.
For “GGUCACGUCUCAAUCAACUCUAUCUCAGGAGUUUUCUCCUGUAAUCUCAACAGCUCGCAGUCAAG”, the binding signal (log2 fold change) was -0.0793.
For “GGUCACGUCUCAAUCAACUCAUUCUCCAGGGAAAGCCCUGGUAUACUCAACAGCUCGCAGUCAAG”, the binding signal (log2 fold change) was 0.00425.
“GGUCACGUCUCAAUCAACUCUAUCUCCAGGGAAAGCCCUGGCAUAUUCAACAGCUCGCAGUCAAG” gave a binding signal (log2 fold change) of -0.0756.
In the case of “GGUCACGUCUCAAUCAACUCAAUCUCAGGAGUUUUCUCCUGUAUAGUCAACAGCUCGCAGUCAAG”, the binding signal (log2 fold change) is reported as 0.0274.
“GGUCACGUCUCAAUCAACUCUAUCUCCAGGGAAAUCCCUGGCAAAUUCAACAGCUCGCAGUCAAG” showed a binding signal (log2 fold change) of 0.274.
“GGUCACGUCUCAAUCAACUCACAAGAGGGGGGGAAAACCCCUUUACCCUCACCGUCAACAGCUCGCAGUCAAG” showed a binding signal (log2 fold change) of 0.0471.
Sequence “GGUCACGUCUCAAUCAACUCCUACGAGGGGGGGAAAACCCCUUUACCCUCACAUUCAACAGCUCGCAGUCAAG” has a binding signal (log2 fold change) of 0.179.
With “GGUCACGUCUCAAUCAACUCUAUUCCCAGGGAAACCCCUGGUUUUUUCAACAGCUCGCAGUCAAG” the binding signal (log2 fold change) was -0.166.
“GGUCACGUCUCAAUCAACUCAUUCUCAGGAGUUUCCUCCUGUUAUUUCAACAGCUCGCAGUCAAG” was tested, and the binding signal (log2 fold change) was -0.0361.
For “GGUCACGUCUCAAUCAACUCAUUUCCAGGAGUUUUCUCCUGUUAUUUCAACAGCUCGCAGUCAAG”, the binding signal (log2 fold change) was -0.0387.
With “GGUCACGUCUCAAUCAACUCUUCCUCAGGAGUUUUCUCCUGUAAUGUCAACAGCUCGCAGUCAAG” the binding signal (log2 fold change) was 0.1.
Work on “GGUCACGUCUCAAUCAACUCAAUUUCAGGAGUUUGCUCCUGCUAUUUCAACAGCUCGCAGUCAAG” yielded a binding signal (log2 fold change) of 0.00431.
Sequence “GGUCACGUCUCAAUCAACUCUUCUUCCAGGGAAAACCCUGGCAAUUUCAACAGCUCGCAGUCAAG” has a binding signal (log2 fold change) of 0.0661.
“GGUCACGUCUCAAUCAACUCUAUUCCCAGGGAAAGCCCUGGUAAAUUCAACAGCUCGCAGUCAAG” gave a binding signal (log2 fold change) of -0.044.
Sequence “GGUCACGUCUCAAUCAACUCAAUCCCCAGGGAAACCCCUGGUAUUCUCAACAGCUCGCAGUCAAG” has a binding signal (log2 fold change) of 0.217.
